{"source": "PubChem BioAssay AID1508642", "about": "(National Center for Advancing Translational Sciences (NCATS), 2021)", "note": "In all, about 43,000 compounds went through this assay and about 200 (0.47%) were called active. Roughly 12% stayed inconclusive and do not appear here. Calls come from the whole dose curve; as a rule, active = well fitted cell-killing curve with a large enough effect; inconclusive = small, poorly fitted or top-dose-only effect, or effect the other way; inactive = flat fitted curve, though single readings scatter. The list shows a part of the results. % is set by controls: 0 for no effect and ±100 for the full control effect."}
{"assay": "Cell viability qHTS assay in S16 Pmp22-F2sN cells; note: nearly all actives have a fitted effect of over 65% in size", "settings": "S16 Pmp22-F2sN Schwann cells viability, CellTiter-Glo, 24 h; series mostly up to 57.5 µM; activity change, negative = cytotoxicity: at the top concentration", "outline": "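S16 Pmp22-F2sN Schwann cells (500-1,000/well) in phenol-red-free DMEM with 10% FBS received 23 nL compound by pin tool for 24 h at 37 °C. Viability was then read as CellTiter-Glo luminescence after 15 min at room temperature.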"}
{"smiles": "Cc1nn(C(C)C(=O)NC2CCC(C)CC2)c(=O)c2c1sc1ccccc12", "note": "(stereo not given)", "activity change, negative = cytotoxicity": "inactive: 6.93%"}
{"smiles": "CCc1ccc(OCc2nc(-c3ccc(-n4cccc4)cc3)no2)cc1", "activity change, negative = cytotoxicity": "inactive: 1.83%"}
{"smiles": "CCc1nc(-c2cc(S(=O)(=O)N3CCN(c4ccc(OC)cc4)CC3)ccc2OC)no1", "activity change, negative = cytotoxicity": "inactive: 7.43%"}
{"smiles": "CCOc1ccc(-c2cn3c(n2)sc2cc(C(=O)NCCc4ccc(OC)cc4OC)ccc23)cc1", "activity change, negative = cytotoxicity": "inactive: 4.23%"}
{"smiles": "O=S(=O)(NCCc1csc2nc(-c3ccccc3)nn12)c1cccs1", "activity change, negative = cytotoxicity": "inactive: 0.395%"}
{"smiles": "CCOc1ccc(C2C(C(=O)Nc3ccccc3)=C(C)Nc3nc(SCc4cccc(OC)c4)nn32)cc1", "note": "(stereo not given)", "activity change, negative = cytotoxicity": "inactive: -0.316%"}
{"smiles": "Cc1ccc(/C=C/c2onc(C)c2S(=O)(=O)N2CCC(C(=O)N3CCN(c4cccc(C)c4)C(C)C3)CC2)cc1", "note": "(stereo not given)", "activity change, negative = cytotoxicity": "inactive: 20.5%"}
{"smiles": "Cc1ccc(OCc2nc(-c3ccc(C(=O)NCCc4ccc(Cl)cc4)cc3)oc2C)cc1", "activity change, negative = cytotoxicity": "inactive: 3.03%"}
{"smiles": "Cc1ccc(NC(=O)CN2C(=O)CCc3ccccc32)cc1C", "activity change, negative = cytotoxicity": "inactive: 4.3%"}
{"smiles": "COc1ccc(N(CC(=O)NC(C)c2ccccc2)S(=O)(=O)c2c(C)nn(C)c2C)cc1", "note": "(stereo not given)", "activity change, negative = cytotoxicity": "inactive: 8.55%"}
{"smiles": "COc1ccc(N2CCN(Cc3nc4c(c(=O)[nH]c(=O)n4C)n3Cc3ccc(C)cc3)CC2)cc1", "activity change, negative = cytotoxicity": "inactive: -1.26%"}
{"smiles": "CCOC(=O)c1c(C)[nH]c(C)c1S(=O)(=O)N1CCCC(C(=O)N2CCN(c3ccccc3F)CC2)C1", "note": "(stereo not given)", "activity change, negative = cytotoxicity": "inactive: -3.91%"}
{"smiles": "CCc1nn(CC(=O)N2CCN(c3cccc(OC)c3)CC2)c(=O)c2cc3occc3n12", "activity change, negative = cytotoxicity": "inactive: 1.63%"}
{"smiles": "COc1ccc(NC(=O)c2nn(C)c3c2CS(=O)(=O)c2ccccc2-3)cc1Cl", "activity change, negative = cytotoxicity": "inactive: 3.79%"}
{"smiles": "Cc1ccccc1CN1C(=O)c2ccccc2Sc2ccc(C(=O)NC3CCCCC3)cc21", "activity change, negative = cytotoxicity": "inactive: -2.66%"}
{"smiles": "CC(C)Nc1ccc(-c2nc(-c3ccncc3)no2)cc1[N+](=O)[O-]", "activity change, negative = cytotoxicity": "inactive: -9.98%"}
{"smiles": "Cc1ccc(C(=O)n2nc(C)c(S(=O)(=O)N3CCCCCC3)c2C)cc1C", "activity change, negative = cytotoxicity": "inactive: -15.8%"}
{"smiles": "CN(Cc1ccccc1)c1nnc(NC(=O)Nc2cccc(Br)c2)s1", "activity change, negative = cytotoxicity": "inactive: -12.1%"}
{"smiles": "Cc1ccc(-n2nc(C(=O)Nc3ccc(F)cc3Cl)c(=O)n(C)c2=O)cc1", "activity change, negative = cytotoxicity": "inactive: -4.3%"}
{"smiles": "CCOC(=O)c1c(S(=O)(=O)N2CCC(C(=O)NCc3cccc(C)c3)CC2)c(C)n(C)c1C", "activity change, negative = cytotoxicity": "inactive: -0.929%"}
{"smiles": "CCOc1cccc2sc(N3CCN(C(=O)c4ccc5c(c4)CCCC5)CC3)nc12", "activity change, negative = cytotoxicity": "inactive: -8.77%"}
{"smiles": "COc1ccccc1NC(=O)CSc1nc(O)c(C/C=C/c2ccccc2)c(=O)[nH]1", "activity change, negative = cytotoxicity": "inactive: -3.59%"}
{"smiles": "CCc1nnc(NC(=O)CSc2nccn2Cc2ccc(C)cc2)s1", "activity change, negative = cytotoxicity": "inactive: 3.27%"}
{"smiles": "COc1ccc(CNC(=O)c2nc(SCc3ccc(C)cc3)ncc2Cl)cc1", "activity change, negative = cytotoxicity": "inactive: -2.16%"}
{"smiles": "COc1ccc(Cn2c(=O)n(-c3ccc(F)c(Cl)c3)c(=O)c3c2c2cc(OC)ccc2n3C)cc1", "activity change, negative = cytotoxicity": "inactive: -7.55%"}
{"smiles": "CCN(CC)C(=O)c1ccc2c(c1)N(Cc1c(F)cccc1Cl)C(=O)c1ccccc1S2", "activity change, negative = cytotoxicity": "inactive: 12%"}
{"smiles": "CC(C)C(NS(=O)(=O)c1ccc2c(c1)oc(=O)n2C)C(=O)N1CCN(c2cccc(Cl)c2)CC1", "note": "(stereo not given)", "activity change, negative = cytotoxicity": "inactive: 6.2%"}
{"smiles": "O=C(CSc1nc(=O)[nH]c2c1CCCC2)Nc1ccc(Cl)c(Cl)c1", "activity change, negative = cytotoxicity": "inactive: 0.886%"}
{"smiles": "COC(=O)Cn1c(=NC(=O)c2ccc3c(c2)OCCO3)sc2ccccc21", "activity change, negative = cytotoxicity": "inactive: 8.04%"}
{"smiles": "Cc1ccn2c(Nc3c(C)cccc3C)c(-c3ccsc3)nc2c1", "activity change, negative = cytotoxicity": "inactive: -18.3%"}
{"smiles": "COc1ccc(N2CC(NC(=O)c3cccs3)CC2=O)cc1", "note": "(stereo not given)", "activity change, negative = cytotoxicity": "inactive: -1.38%"}
{"smiles": "COc1ccc(Cl)cc1NC(=O)NCCn1c(=O)oc2ccc(C)cc21", "activity change, negative = cytotoxicity": "inactive: -10.4%"}
{"smiles": "CCc1ccc(-n2c(=O)c3ccccc3n(CC(=O)NCCc3ccc(OC)c(OC)c3)c2=O)cc1", "activity change, negative = cytotoxicity": "inactive: 17.2%"}
{"smiles": "Cc1ccc(N(CC(=O)N2CCN(c3cccc(Cl)c3)CC2)S(=O)(=O)c2c(C)noc2C)cc1", "activity change, negative = cytotoxicity": "inactive: -19.2%"}
{"smiles": "COc1ccc(C)cc1NC(=O)N1CCC(CN2CCOCC2)CC1", "activity change, negative = cytotoxicity": "inactive: 14.2%"}
{"smiles": "CCn1cc2nc(SCc3cccc(C(F)(F)F)c3)n(Cc3ccc(Cl)cc3)c(=O)c2n1", "activity change, negative = cytotoxicity": "inactive: 25.4%"}
{"smiles": "COc1ccc(OC)c(NC(=O)CCCc2nnc3n(C(C)C)c(=O)c4sccc4n23)c1", "activity change, negative = cytotoxicity": "inactive: 19.4%"}
{"smiles": "Cc1ccc(Cl)cc1-n1nnc(-c2nsc(NC(=O)c3ccccc3Cl)n2)c1C", "activity change, negative = cytotoxicity": "inactive: 11.6%"}
{"smiles": "Cc1ccc2oc(C(=O)Nc3ccc(S(=O)(=O)N4CCCC(C)C4)cc3)cc(=O)c2c1", "note": "(stereo not given)", "activity change, negative = cytotoxicity": "inactive: -13.9%"}
{"smiles": "Cc1ccc(C)c(N2CCN(C(=O)c3cnn(C(C)(C)C)c3C3CCN(C(=O)OC(C)(C)C)CC3)CC2)c1", "activity change, negative = cytotoxicity": "inactive: -29.5%"}
{"smiles": "COc1ccc(-c2cn3nc(N4CCC(C(=O)Nc5ccccc5OC)CC4)sc3n2)cc1", "activity change, negative = cytotoxicity": "inactive: 1.27%"}
{"smiles": "CCOc1ccc(NC(=O)CC2C(=O)N(c3ccccc3)C(=O)N2CCc2cccs2)cc1", "note": "(stereo not given)", "activity change, negative = cytotoxicity": "inactive: -0.692%"}
{"smiles": "Cc1ccc2cc3cc(C(=O)N4CCN(c5ccc(Cl)cc5)CC4)oc3nc2c1", "activity change, negative = cytotoxicity": "inactive: 0.371%"}
{"smiles": "Cc1ccccc1NC(=O)c1c(NC(=O)c2ccccc2)sc2c1CCC2", "activity change, negative = cytotoxicity": "inactive: 6.81%"}
{"smiles": "CCC(=O)Nc1ccc(CC)cc1-c1nc2ccccc2n(CC(=O)Nc2cccc(OC)c2)c1=O", "activity change, negative = cytotoxicity": "inactive: 1.27%"}
{"smiles": "Cc1ccc(CCNC(=O)c2sc3ncccc3c2-n2c(C)ccc2C)cc1", "activity change, negative = cytotoxicity": "inactive: -16.2%"}
{"smiles": "CC1CCCCN1c1c(S(=O)(=O)c2ccc(Cl)cc2)cnc2ccccc12", "note": "(stereo not given)", "activity change, negative = cytotoxicity": "inactive: -2.79%"}
{"smiles": "CCOC(=O)c1cc2c(=O)n3ccccc3nc2n(CC(C)C)c1=NC(=O)COc1ccc(Cl)cc1", "activity change, negative = cytotoxicity": "inactive: -5.85%"}
{"smiles": "COc1ccc(C(=O)Nc2ccc3nc4c(c(Nc5ccc(OC)c(OC)c5)c3c2)CCCC4)c(OC)c1", "activity change, negative = cytotoxicity": "inactive: 13.7%"}
{"smiles": "COc1ccc(-c2nc(CS(=O)CC(=O)NCCc3ccccc3)c(C)o2)cc1OC", "note": "(stereo not given)", "activity change, negative = cytotoxicity": "inactive: -20.3%"}
{"smiles": "Cc1cc(C)cc(-n2ccnc(NCCc3ccccc3)c2=O)c1", "activity change, negative = cytotoxicity": "inactive: 13.4%"}
{"smiles": "O=C(CCCc1nc(-c2ccco2)no1)Nc1ccccc1[N+](=O)[O-]", "activity change, negative = cytotoxicity": "inactive: -1.82%"}
{"smiles": "COc1cccc(-n2c(=O)c3c4c(sc3n(Cc3ccc(F)cc3Cl)c2=O)CCCC4)c1", "activity change, negative = cytotoxicity": "inactive: -3.54%"}
{"smiles": "COc1ccc(-c2[nH]ncc2C(=O)NCc2cccc(F)c2)cc1", "activity change, negative = cytotoxicity": "inactive: -2.46%"}
{"smiles": "CCC1CCCCN1S(=O)(=O)c1ccc(N2CCCCS2(=O)=O)cc1", "note": "(stereo not given)", "activity change, negative = cytotoxicity": "inactive: 1.19%"}
{"smiles": "CCOC(=O)c1ccc(NC(=O)c2c(C)oc3nc(C)nc(N4CCCC4)c23)cc1", "activity change, negative = cytotoxicity": "inactive: 2.43%"}
{"smiles": "CC(=O)Nc1c(C(=O)Nc2cccc(C)c2)nnn1-c1ccc(C)cc1", "activity change, negative = cytotoxicity": "inactive: -12.7%"}
{"smiles": "Cc1ccc(Cl)cc1N1CCN(C(=O)CCSCc2ccccc2F)CC1", "activity change, negative = cytotoxicity": "inactive: -5.78%"}
{"smiles": "CCc1ccc(-c2cc(C)no2)cc1S(=O)(=O)N1CCN(c2cccc(Cl)c2)CC1", "activity change, negative = cytotoxicity": "inactive: -9.1%"}
{"smiles": "COc1ccc(NC(=O)c2oc3ccc(S(=O)(=O)N(C)C4CCCCC4)cc3c2C)cc1Cl", "activity change, negative = cytotoxicity": "inactive: 2.04%"}
